Measurements published in PubChem BioAssay AID1508624 (National Center for Advancing Translational Sciences (NCATS), 2021).
The whole screen tested about 48,000 compounds, of which about 120 (0.25%) were called active. Inconclusive results (about 4%) are left out. Calls come from the whole dose curve; as a rule, active = well fitted activation curve with a large enough effect; inconclusive = small, poorly fitted or top-dose-only effect, or another doubt; inactive = no such curve, though single readings can be large or run the other way. This is one part of the list.

Test: Primary qHTS for Identification of Small Molecule Activators of Huntingtin-Antisense Promoter Activity; note: nearly all actives have a fitted effect of over 55% in size
Conditions: HEK293 HTT-AS promoter firefly luciferase reporter, 24 h; series mostly up to 57.5 µM; activity change, positive = activation: at the top concentration
Procedure, shortened: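 HEK293 luciferase promoter-reporter cells (2,500/well) plated 24 h, then compounds added at up to 57.5 uM final for 24 h at 37 °C. Firefly luminescence by Dual-Glo, normalized to vehicle (0%) and zero RLU (-100%).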

Activity change, positive = activation, inactive:
Oc1c(C(c2ccc(Cl)cc2)N2CCC3(CC2)OCCO3)sc2nc(-c3ccco3)nn12 (stereo unspecified) 2.24%
O=C(Cn1c(=O)oc2ccccc21)Nc1ccc(C(=O)O)cc1 -6.92%
COc1cc(NC(=O)c2cccc3c2C(=O)N(C2CCCCC2)C3)cc(OC)c1 -1.31%
CCOc1ccccc1NC(=O)CSc1nc2cc(OC)c(OC)cc2c2nc(-c3ccccc3)nn12 8.55%
CCc1ccc(-c2[nH]c3c(c2-c2sc(C)c(C(=O)OC)c2O)c(=O)[nH]c(=O)n3C)cc1 -22.6%
Cc1nn(C(=O)c2ccc(Br)cc2)c(C)c1S(=O)(=O)N1CCOCC1 15.3%
Cc1coc2c(C)c3oc(=O)c(CCC(=O)NCCc4ccccc4)c(C)c3cc12 -6.79%
Cn1c(NCCO)nc2c1c(=O)n(Cc1cccc(F)c1)c(=O)n2C 0.762%
COc1cccc(/C=C/c2nc(C#N)c(NCCc3ccc(OC)c(OC)c3)o2)c1 -32.5%
COC(=O)c1ccc2c(c1)N(Cc1ccc(F)cc1)C(=O)c1ccccc1S2 -19.6%
CCCCN(CCCC)S(=O)(=O)c1ccc2oc(C(=O)NCc3ccc(C)cc3)c(C)c2c1 -11.9%
CCCCN1C(=O)C(O)(c2c[nH]c3ccccc23)c2cc(Br)ccc21 (stereo unspecified) -25.1%
Cc1ccc(NC(=O)Cn2c(=O)n(Cc3ccco3)c(=O)c3sc4ccccc4c32)cc1C -9.23%
O=C(CCCN1CCN(c2ccc(F)cc2)CC1)NC1c2ccccc2CSc2ccccc21 (stereo unspecified) -85.9%
CCOc1ccc(CCNC(=O)c2cnc3c(-c4ccc(F)cc4)c(C)nn3c2C)cc1OCC -6.34%
COc1ccc2c(c1)sc1ncc(C(=O)NCc3ccc(OC(C)C)cc3)c(=O)n12 -8.52%
COc1ccc(-c2cc(C(F)(F)F)nc(SCCC(=O)Nc3cc(C)ccc3O)n2)cc1 -56.7%
O=S1(=O)c2ccccc2N(Cc2cccc(C(F)(F)F)c2)c2ccccc21 -43.5%
CCCCN(CCCC)CCNC(=O)Cn1nc(CC)n2c(cc3sc(C)cc32)c1=O -11.1%
Cc1cccc(NC(=O)Cn2c(=O)n(CCCS(=O)(=O)C3CCCCC3)c(=O)c3ccccc32)c1 -25.3%
CCOCCCNC(=O)c1[nH]c2cc(C)ccc2c1Sc1ccc(Cl)cc1 -7.79%
CCOC(=O)c1ccc(-n2c(C)nc3c(cnn3-c3ccc(Cl)cc3)c2=O)cc1 -19%
CCc1cncnc1N1CCN(Cc2nc3ccc(C(F)(F)F)cc3[nH]2)CC1 -43.1%
COc1ccc(CCNC(=O)c2c(O)nc3c(C)cccn3c2=O)cc1 26.2%
Cc1ccc(-c2onc(C)c2C)cc1S(=O)(=O)N1c2ccccc2CC1C (stereo unspecified) -88.7%
CCOCCc1nn2c(=O)cc(COC(=O)c3ccccc3NC(=O)C3CCCCC3)nc2s1 -24.6%
O=C(NCCn1cc(SCc2ccc(Cl)cc2)c2ccccc21)c1cccs1 -38.5%
COc1cccc(-c2nc(SCC(=O)Nc3ccc4c(c3)OCCO4)c(-c3ccccc3)[nH]2)c1 -5.58%
COc1cc(OC)c(N(C)C(=O)CCNC(=O)Cn2cnc3ccccc3c2=O)cc1Cl -8.62%
CN(C)CCNC(=O)Cn1c(=O)c2cccn2c2ccc(F)cc21 -9.14%
Cc1ccc(C)c(CN2C(=O)c3ccccc3S(=O)(=O)c3ccc(C(=O)N4CCN(c5ccccc5)CC4)cc32)c1 -19.4%
C#CCSc1nc2sc3c(c2c(=O)n1Cc1ccccc1)CCCC3 -33.5%
COc1ccccc1OCCSc1nc2ccccc2n1CC(=O)N1CCOCC1 7.28%
COc1ccc(NC(=O)c2sc3nc(-c4ccc(OC)cc4)cc(C(F)(F)F)c3c2N)cc1 -9.54%
Cc1ccccc1Nc1c(-c2ccco2)nc2c(C)cccn12 -10.4%
CC1CCCCN1S(=O)(=O)c1ccc(C(=O)Nc2sc3c(c2C(N)=O)CC(C)(C)NC3(C)C)cc1 (stereo unspecified) -10%
Cc1ccc(NC(=O)CCS(=O)(=O)c2cccc3nonc23)cc1Cl -24.2%
Cc1ccc(CS(=O)(=O)c2ncc(Cl)c(C(=O)Nc3nc4ccc(C)cc4s3)n2)cc1 -85.8%
Cc1n[nH]c(C)c1S(=O)(=O)N(CC(=O)Nc1ccc(C(F)(F)F)cc1)c1ccc(C(C)C)cc1 -58.7%
CCCOc1ccc(C(=O)Nc2ccc3nn(-c4ccc(OC)c(Cl)c4)nc3c2)cc1 3.05%
CCOc1ccc(-c2nnc(SCC(=O)Nc3cc(F)ccc3F)o2)cc1 -8.39%
COCCCNC(=O)c1ccc(Cn2c(=O)c3ccccc3n(Cc3ccccc3C)c2=O)cc1 -43.1%
COc1ccc(NC(=O)c2cnn(-c3ccc(F)cc3F)c2C2CCN(C(=O)OC(C)(C)C)CC2)cc1Cl -26.4%
COc1ccc(CCNC(=O)c2ccc3nc(Cc4ccccc4)oc3c2)cc1OC -27.4%
Nc1nonc1-c1nc2ccccc2n1Cc1c(Cl)cccc1Cl -23.1%
COc1ccc(N(CC(=O)NCCc2ccccc2)S(=O)(=O)c2ccc(OC)c(OC)c2)cc1 6.19% [at 11.5 µM, percent change from vehicle, -100% = no light]
O=C(C1CCCN(S(=O)(=O)c2cccc3nonc23)C1)N1CCN(c2ccccc2Cl)CC1 (stereo unspecified) -36.6%
COc1ccc(CNC(=O)c2ccc(NC(=O)N3CCSc4ncccc43)cc2)cc1OC 1.46%
CCOC(=O)c1c(NC(=O)CCCOc2ccc(Cl)cc2)sc2c1CCC2 -17.8%
COc1ccc(OC)c(-c2noc(N3CCN(c4ccc(C(C)=O)cc4)CC3)n2)c1 -33.9%
COc1ccc(-c2oc3ncn4nc(COc5ccc(C)cc5)nc4c3c2-c2ccc(OC)cc2)cc1 10.1% [at 11.5 µM, percent change from vehicle, -100% = no light]
COc1ccc(Cc2ccc(NC(N)=O)cc2)cc1-c1cccc(Cl)c1 -30.7%
CCOC(=O)Cn1c(=O)oc2cc(S(=O)(=O)N3CCN(c4ccccc4OC)CC3)ccc21 -16.6%
O=C(NCCc1csc2nc(-c3ccccc3F)nn12)c1ccccc1C(F)(F)F -8.59%
COc1cccc(CN(C(=O)c2ccc(C(C)(C)C)cc2)C2CCS(=O)(=O)C2)c1 (stereo unspecified) -15.6%
Cc1ccc(Nc2ncnc3c2cnn3-c2ccc(C)cc2)cc1 7.38%
CC(=O)Nc1ccc(NS(=O)(=O)c2cc(Br)cc3c2N(C(=O)C2CC2)CC3)cc1 -21.1%
COc1ccc(OCC(=O)N(Cc2cccc(OC)c2)C2CCS(=O)(=O)C2)cc1 (stereo unspecified) -4.76%
COc1cc(OC)c(NC(=O)c2cc(C(C)=O)n3ccccc23)cc1Cl -41.9%
CCOc1ccccc1NC(=O)CSc1ccc2nnc(CCNS(=O)(=O)c3ccccc3)n2n1 -13%
COc1ccc(C)cc1NS(=O)(=O)c1c(C)nc2sc(C)cn2c1=O -23.8%
COCCNC(=O)CCCn1c(=O)[nH]c2ccsc2c1=O 1.24%
Cc1ccc(Cl)cc1N(C)C(=O)c1noc2c1CCCCC2 -19.1%
COc1ccccc1NC(=O)C1=C(C)Nc2nc(SCC(=O)c3ccc(C)cc3)nn2C1c1ccccc1C (stereo unspecified) 2.53%
COc1ccc(NC(=O)c2sc3nc(C)c(C(=O)Nc4ccc(C)cc4C)c(-c4ccccc4Cl)c3c2N)cc1 -20.3%
COc1ccc(-n2cc(C(=O)N(C)c3cc(C)ccc3OC)c3ccccc3c2=O)cc1 -29.1%
CSCCC(NS(=O)(=O)c1ccc2c(c1)oc(=O)n2C)C(=O)NCc1ccc(F)cc1 (stereo unspecified) -0.282%
Cc1nn(Cc2noc(C(=O)NCc3cccc(F)c3)n2)c(C)c1Br -13.2%
CCOc1ccc(NS(=O)(=O)c2ccc3[nH]cc(C(=O)NCCOC)c(=O)c3c2)cc1 -12%
CN(C)CCN(Cc1ccccc1)S(=O)(=O)c1ccc(-c2cc(C(F)(F)F)on2)s1 -35.9%
CN(C)CCNC(=O)CCCn1c(=O)c2cccn2c2ccccc21 -5.59%
COc1ccc(CCn2c(=O)[nH]c3cc(C(=O)N4CCN(c5ccccc5)CC4)ccc3c2=O)cc1OC -31.4%
Cc1ccc(NC(=O)/C(C#N)=C/c2cc(C)n(-c3ccc(Br)cc3)c2C)cc1C -85.3%
COCCNC(=O)CCCN1C(=O)CCn2nc(-c3cccn3C)cc21 6.87%
Cc1ccc(CCNC(=O)c2ccc(CS(=O)(=O)c3ccc(Cl)cc3)o2)cc1 -2.77%
CCN1C(=O)C2(c3ccccc31)c1c(oc3ccc(C)cc3c1=O)C(=O)N2CCCOC(C)C (stereo unspecified) -13.4%
Cc1cc2ccccc2n1CCNC(=O)c1ccc(F)cc1 -17.2%
Fc1ccc(-c2cn3cc(Cc4ccccc4Cl)sc3n2)cc1 -11.5%
Cc1cc(O)c(C(c2ccc(Cl)cc2)N2CCN(c3ccccc3)CC2)c(=O)n1Cc1ccco1 (stereo unspecified) -0.795%
CC1=C(c2ccc(C)cc2)S(=O)(=O)N(Cc2ccc(C(=O)Nc3ccccc3C)cc2)C1=O -38.6%
COc1ccc(NC(=O)Cn2c(=O)oc3cc(S(=O)(=O)N4CCCCC4C)ccc32)cc1 (stereo unspecified) -24.1%
O=C(c1ccccc1F)N1CCC(c2nc3c(nnn3Cc3cccc(F)c3)c(=O)[nH]2)CC1 -11.4%
Cc1oc(-c2ccc(C(=O)NC(C)c3ccccc3)cc2)nc1CS(=O)(=O)c1ccccc1 (stereo unspecified) -6.2%
COC(=O)c1ccccc1NC(=O)CCCN1C(=O)C(c2ccccc2)Oc2cccnc21 (stereo unspecified) -22.3%
Cc1nc2ccccc2n1CCc1nc2c3ccccc3nc(SCC(=O)Nc3cccc(C(F)(F)F)c3)n2n1 -23%
CCc1ccc2ncc(S(=O)(=O)c3ccc(Cl)cc3)c(N3CCN(CC)CC3)c2c1 -27.8%
COc1ccc(Br)cc1Cn1nnc(C(=O)Nc2ccc(C)cc2C)c1N -33.8%
CCCCOc1ccc(C(=O)N2CC(=O)Nc3ccc(Br)cc3C2c2ccc(F)cc2)cc1 (stereo unspecified) -20%
Cc1cc(C)nc(NS(=O)(=O)c2ccc(NC(=O)c3ccccc3O)cc2)n1 -20%
COc1ccc2c(Sc3ccccc3)c(C(=O)NCC(C)c3ccccc3)[nH]c2c1 (stereo unspecified) 13.6%
Cc1cc(C)cc(-n2c(SCC(=O)N3CCCC3)nc3c([nH]c4ccccc43)c2=O)c1 -6.7%
